Experiment [1] has as its system COLO 205 colon. As to the kind of experiment: NCI-60 one-dose screen, 48 h (100 = growth as untreated, 0 = no growth, -100 = all killed). The note with it: 2.5 mM.
Experiment [2] deals with DU-145 prostate. Described as above. Conditions: 2.5 mM.

SMILES strings stand for the structures. A structure can be active in one record and inactive in another.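 Treatment: one concentration, 48 hours, 96-well format. Scoring: percent growth, with anything below 10 considered active.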 Not every entry of the source has a single result; some have several. This is not the full list of results. The source may hold further records. These are repeated runs of one drug, at its own concentration, as given; each value is one run. Marks such as (2×) give the number of equal values in this list.

Turning to `O=c1[nH]cc(F)c(=O)[nH]1`, the growth result in experiment [1] (runs of 1991) was “inactive: 23.2, 13.9, 19.4, 10.5% and active: -61, -26.3, -95.3, -40.2, -2.72, 9.16, 0.615, -53.3, -46.5, 9.63, -17.4, -37.7, -52.7, -62.4%”; in experiment [1] (runs of 1992) it was “active: -3.59, 7.35, -48.1, -24.3, -48.9, -68.4, -37.1 (2×), 5.18, 4.47, -34.7, -29.4, -80.1, -90.6, -68.2, -35.5, 3.43, -15.9, 0.516, 0.971, -36.4, -33.4, -29.5, -41.6 (2×), -11.2, -54.1, -23.9, -74.6, -1.61, -78.8, -66.1, -27.9, 8.19, -57.1, -60.4, 9.83, -2.29, 2.14, 8.99, -38.4, -54, -17.6, -37.8, -33.5, -70.2, -42.3 (2×), -38.6 (2×), -75.6, -91 (2×), -44.1, 4, 4.33, -2.78, -10.2, -20.8, -76.4, 6.49, -93.9, -32.4, -74.5, 7.3, 6.75, -44.7 (2×), -15.5, -28.5, -14.6, -59.5, -57.2, -62, -23.8, -73.8, -59.6, 5.42, -64.7, 3.22, -66.4, -21.7, -69.7, 5.12, 9.79, -47.3, -88.1, -71.2, 9.44, -55.2, -18.5, 3.28, 8.24, -56.6, -3.12, -20.7, -53, -42.9, -51.5, -50, -36.7, 2.67, -80.3, -71.6, -6.1, 3.14, -37.5% and inactive: 17.1, 14.8, 47.8, 109, 12.8, 10.2, 17.5 (2×), 15, 18.6, 14.4, 16.9, 12.5, 42.4, 21.5, 10.1, 24.5%”; in experiment [1] (runs of 1993) it was “active: 5.14, 3.36, -23.3, -92.3, -31.3, 6.96, -7.51, -30.4, -46.3, 0.715, 2.56, -29.4, -6.99, -39, -68.7, 0.594, -20.2, -21.1, -37.9, -10.9, -31.4, 3.61, -22.3, -69.2, 4.2, -50.6, -2.31, -78, -80.9, 1.02, -68.6% and inactive: 45.4, 10.5, 17.2, 35.2, 21.7, 24.6, 16.3, 13.4, 52.5, 30, 93.2, 85, 17.7, 14.6, 18.1, 20%”; in experiment [1] (runs of 1994), “inactive: 20, 21.5, 18.1, 18.7, 19.2, 10.5, 15.5% and active: -40.7, -16.1, -72, -40.3, -37.8, -74.1, -74.3, 8.82, -69.3, -33.5, 4.39, -5.07, -12.4, -79.6, -34, -85.1, -16.7, 1.9, -70.8, 9.87, -52.4, -39.5, -88.1, 3.94, -86.6, 1.06, -6.46, 3.95%”; in experiment [1] (runs of 1995), “active: -2.58, -91.2, -86.9, -62.3, -73.4, -3.24, -43.1, -42.6, -47, -48.2, -88, -71.8, -53.3, 5.65, -71.2, -1.87, -57, -63.5, 3.63, 4.95, -54.6, -17.2, -72.8, -19.3, 0.0764, -45.6, 2.37, 3.25, -2.64% and inactive: 17.9, 19.2, 35, 29.1, 12.6, 22.2, 19, 14, 17.4%”; in experiment [1] (runs of 1996), “inactive: 28.9 (2×), 12.2, 10.9, 34.8, 15.8, 29.5, 37.5, 21.7, 16.1, 24.8, 17.7, 19.5, 14, 11.2, 12.3, 25.7, 16.6, 17.4, 25.1, 16.7, 13.4, 19.3, 22, 12.1, 11% and active: -71.5, 5.7, -64.6, -28.1, -7.65, 3.84, -43.2, -71, 8.66, -70.7, -40.8, -31, -9.53, 5.94, -8.58, 9.17, 1.54, -27.1, 6.25, -69.8, -77.6, -74.5, -35.2, -1.33, 0.212, -41.2, -11.4, 1.26, -43.8, 1.96, 0.195, -22.2, -50%”. Moreover, the growth result in experiment [1] (runs of 1997) was “inactive: 22, 20.8, 15.1, 19.5, 61.5, 10.1, 21.3, 17.3, 12.7, 10.6, 29.3, 11, 20, 14.9% and active: -32.4, 3.75, 7.6, -10.1, -13.8, 5.13, -27.2, -20.8, -2.86, -40.1, -12.2, -9.23, -64.4, -100, -32.6, -86.5, -5.08, -55.2, -43.1, -23.4, -72.5, -16, -16.1 (2×), 4.48, -59.6, -47.6, -29.2%”; in experiment [1] (runs of 1998), “active: -17.3, 9.7, -79.8, -77.5, 8.36, -4.27, -0.753, -5.1, -44.8, -57, -13.3, -25.1, -15.6, 4.12, 3.94, 3.26, 9.33, 2.69, 3.2, -3.73% and inactive: 16, 19.4, 29.2, 15.3, 12.2, 29.3%”; in experiment [1] (runs of 1999) it was “inactive: 19.6%, 19.8%, 108% and active: 2.15, -22.3, -59.3, -70.6, -32.4, 0, -67.4, 2.89, 1.23, 0.841%”; in experiment [1] (runs of 2000) it was “active: -48.1, 1.9, 3.8, -31.7%”; in experiment [2] (runs of 1993) it was “inactive: 35.6, 23.6, 30, 25.2, 20.6, 35.1, 21.9, 30.8, 24.1, 31.2 (2×), 29, 22.8, 12.7, 11.4, 20.8, 59.8, 33.8, 104, 26.3, 85.5, 19.8, 21.7, 36.1, 26.8% and active: -34.1, -3.37, 7.04, -38.7 (2×), -18.7, 7.06, 6.02, 9.68, -28, -12.3, 4.22, -8.13, -40, -3.11, 5.86, -7.01, -25.9, -15.1, -17.1, 4.57, 7.29%”; in experiment [2] (runs of 1994), “inactive: 38.4, 28.1, 35.8, 17.4, 20, 16.9, 25.7, 35.1, 26.2, 10.3, 23.7, 20.9, 33.5, 42.7, 22.2, 28.9, 14.7, 22.7, 21.9, 19.1, 34.7, 35.3, 13.4, 29.5, 31.4, 13.6% and active: -20.2, 9.62, 7.07, -3.36, 5.42, 8.28, -1.75%”. The growth result in experiment [2] (runs of 1995) is “inactive: 28, 29.9, 14.6, 30.4, 39.1, 19.1, 18.1, 11.5, 12.1, 11.9, 44.2 (2×), 17.6, 21.4, 34.1, 33.8, 14, 21.9, 16.3, 19.5, 18.7, 17.5, 19.9, 33.5% and active: -6.76, 5.82, 2.11, 4.39, -7.98, 4.42, 7.23, 5.3, 4.52, 0.0743, -7.07, 9.43, 3.1, -34.9%”; in experiment [2] (runs of 1996), “inactive: 29.9, 27.4 (2×), 20.8 (2×), 14.3, 35.3, 30.7, 23.5, 30, 13, 32.5, 28.7, 21, 21.3, 20.4, 34.8, 37.7, 34.3, 18.7 (2×), 32.9, 30.1, 22.9, 30.2, 33.9, 24.5, 23.1, 23 (2×), 28.9, 16.8, 33.6, 20.7, 16, 10.4, 29.6, 32, 21.9, 24.8, 22.6, 25.8, 36, 11.2, 32.4, 22.1, 30.4, 40.8, 26.9, 13.4, 24.4, 33% and active: -17.7, 3.22, 5.77, 5.99%”; in experiment [2] (runs of 1997) it was “inactive: 23.9, 24, 34.9, 26.7, 30.8, 26.5, 32.6, 20.7 (2×), 13.3, 26.8, 31.6, 52.5, 17, 17.9, 30, 23.8, 27.4, 35.7, 27.1, 29.7, 19.7, 28.6, 21.2, 36.2, 25.8, 25.3, 29.9, 18.5, 19.9, 23.5, 23, 14.4, 29.6, 21.5, 27, 19.3% and active: 9.14, 6.14, -15.3, 9.66%”.

Source of the values: PubChem BioAssay (NCI).
